Results reported in the supplement of paper PMC12217912.
This is one part of the list. The full chains were built here from the parent and the listed change. Values near 0.05 are background.

B1: TEV protease; numbered along this chain (parent)
chain: MGESLFKGPRDYNPISSSICHLTNESDGHTTSLYGIGFGPFIITNKHLFRRNNGTLVVQSLHGVFKVKDTTTLQQHLVDGRDMIIIRMPKDFPPFPQKLKFREPQREERICLVTTNFQTKSMSSMVSDTSCTFPSGDGIFWKHWIQTKDGQCGSPLVSTRDGFIVGIHSASNFTNTNNYFTSVPKNFMELLTNQEAQQWVSGWRLNADSVLWGGHKVFMVKPEEPFQPVKEATQL

Variants of: B1
Experiment: raw area under fraction-flipped curve 0-4 h after induction (AUC4h, not background-subtracted), DNA-recorder readout of cleavage of the substrate (dimensionless); higher = more cleavage of the substrate by the protease variant
Conditions: temperature: 34 °C; time window: 0-4 h after rhamnose induction
Method: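 In vivo DNA recorder in E. coli TOP10(DE3) ΔrhaA at 34 °C. Each TEVp single-site mutant (parent TEVp 0) is paired with a single-site variant of the 7-mer TEVs (canonical ENLYFQ|S). The substrate sits between flexible linkers in a Bxb1-sfGFP-TEVs-SsrA fusion, so cleavage stabilises Bxb1 and speeds flipping of a recombination array, read by NGS. The value is the raw area under the fraction-flipped curve over 0-4 h after rhamnose induction (AUC4h), with ≥20 reads per time point. It is not background-subtracted; inactive controls average about 0.047.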
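Note: Bxb1 expression induced with 0.2% (w/v) L-rhamnose at OD600 near 0.5, cultures sampled hourly, flipped fraction per protease–substrate barcode pair counted by paired-end Illumina sequencing.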

Row | Variant | area with substrate ANLYFQS | area with substrate CNLYFQS | area with substrate DNLYFQS | area with substrate FNLYFQS | area with substrate GNLYFQS | area with substrate HNLYFQS | area with substrate INLYFQS | area with substrate KNLYFQS | area with substrate LNLYFQS | area with substrate MNLYFQS | area with substrate NNLYFQS | area with substrate PNLYFQS | area with substrate QNLYFQS | area with substrate RNLYFQS | area with substrate SNLYFQS | area with substrate TNLYFQS | area with substrate WNLYFQS | area with substrate YNLYFQS | area with substrate VNLYFQS
1 | MGESLFKGPRDYNPISSSICHLTNESDGHTTSLYGIGFGPFIITNKHLFRRNNGTLVVQSLHGVFKVKDTTTLQQHLVDGRDMIIIRMPKDFPPFPQKLKFREPQREERICLVTTNFQTKSMSSMVSDTSCTFPSGDGIFWKHWIQTKDGQCGSPLVSTRDGFIVGIHSASNFTNTNNYFTSVPKNFMELLINQEAQQWVSGWRLNADSVLWGGHKVFMVKPEEPFQPVKEATQL [T192I] | 0.0854 | 0.0645 | 0.0695 | 0.0717 | 0.0743 | 0.0655 | 0.0481 | 0.0591 | 0.0698 | 0.0647 | 0.0598 | 0.0697 | 0.063 | 0.0415 | 0.0703 | 0.0714 | 0.0571 | 0.07 | 
2 | MGESLFKGPRDYNPISSSICHLTNESDGHTTSLYGIGFGPFIITNKHLFRRNNGTLVVQSLHGVFKVKDTTTLQQHLVDGRDMIIIRMPKDFPPFPQKLKFREPQREERICLVTTNFQTKSMSSMVSDTSCTFPSGDGIFWKHWIQTKDGQCGSPLVSTRDGFIVGIHSASNFTNTNNYFTSVPKNFMELLVNQEAQQWVSGWRLNADSVLWGGHKVFMVKPEEPFQPVKEATQL [T192V] | 0.0723 | 0.0642 |  |  |  |  | 0.156 |  |  |  |  |  |  |  | 0.0677 |  | 0.0621 |  | 
3 | MGESLFKGPRDYNPISSSICHLTNESDGHTTSLYGIGFGPFIITNKHLFRRNNGTLVVQSLHGVFKVKDTTTLQQHLVDGRDMIIIRMPKDFPPFPQKLKFREPQREERICLVTTNFQTKSMSSMVSDTSCTFPSGDGIFWKHWIQTKDGQCGSPLVSTRDGFIVGIHSASNFTNTNNYFTSVPKNFMELLTNQEAWQWVSGWRLNADSVLWGGHKVFMVKPEEPFQPVKEATQL [Q197W] | 0.0543 | 0.0478 | 0.07 | 0.0563 |  | 0.066 |  | 0.054 | 0.0484 |  | 0.0609 | 0.0614 | 0.0517 |  |  | 0.056 | 0.0597 | 0.051 | 0.0673
4 | MGESLFKGPRDYNPISSSICHLTNESDGHTTSLYGIGFGPFIITNKHLFRRNNGTLVVQSLHGVFKVKDTTTLQQHLVDGRDMIIIRMPKDFPPFPQKLKFREPQREERICLVTTNFQTKSMSSMVSDTSCTFPSGDGIFWKHWIQTKDGQCGSPLVSTRDGFIVGIHSASNFTNTNNYFTSVPKNFMELLTNQEAQKWVSGWRLNADSVLWGGHKVFMVKPEEPFQPVKEATQL [Q198K] | 0.0634 | 0.0355 | 0.092 | 0.0514 | 0.0784 | 0.0835 | 0.0782 |  | 0.0379 | 0.0848 | 0.0817 |  | 0.078 | 0.0839 |  | 0.0612 | 0.0657 | 0.0687 | 0.0701
5 | MGESLFKGPRDYNPISSSICHLTNESDGHTTSLYGIGFGPFIITNKHLFRRNNGTLVVQSLHGVFKVKDTTTLQQHLVDGRDMIIIRMPKDFPPFPQKLKFREPQREERICLVTTNFQTKSMSSMVSDTSCTFPSGDGIFWKHWIQTKDGQCGSPLVSTRDGFIVGIHSASNFTNTNNYFTSVPKNFMELLTNQEAQQWHSGWRLNADSVLWGGHKVFMVKPEEPFQPVKEATQL [V200H] | 0.0626 | 0.0476 | 0.0726 |  | 0.054 | 0.0608 | 0.0536 | 0.0619 | 0.0634 | 0.0538 | 0.046 | 0.0607 | 0.0587 |  | 0.0572 | 0.0585 | 0.0511 | 0.0645 | 0.0656
6 | MGESLFKGPRDYNPISSSICHLTNESDGHTTSLYGIGFGPFIITNKHLFRRNNGTLVVQSLHGVFKVKDTTTLQQHLVDGRDMIIIRMPKDFPPFPQKLKFREPQREERICLVTTNFQTKSMSSMVSDTSCTFPSGDGIFWKHWIQTKDGQCGSPLVSTRDGFIVGIHSASNFTNTNNYFTSVPKNFMELLTNQEAQQWVSGARLNADSVLWGGHKVFMVKPEEPFQPVKEATQL [W203A] | 0.0402 | 0.0651 | 0.0661 | 0.0594 |  | 0.0396 | 0.0603 | 0.0453 | 0.0742 |  | 0.053 |  |  |  | 0.0585 | 0.0615 | 0.0614 | 0.056 | 0.0342
7 | MGESLFKGPRDYNPISSSICHLTNESDGHTTSLYGIGFGPFIITNKHLFRRNNGTLVVQSLHGVFKVKDTTTLQQHLVDGRDMIIIRMPKDFPPFPQKLKFREPQREERICLVTTNFQTKSMSSMVSDTSCTFPSGDGIFWKHWIQTKDGQCGSPLVSTRDGFIVGIHSASNFTNTNNYFTSVPKNFMELLTNQEAQQWVSGWHLNADSVLWGGHKVFMVKPEEPFQPVKEATQL [R204H] | 0.0626 | 0.0663 | 0.0959 |  | 0.0718 | 0.0496 | 0.0672 | 0.0756 | 0.0575 | 0.0559 |  | 0.0709 | 0.0605 |  |  | 0.0656 | 0.0623 | 0.0656 | 
8 | MGESLFKGPRDYNPISSSICHLTNESDGHTTSLYGIGFGPFIITNKHLFRRNNGTLVVQSLHGVFKVKDTTTLQQHLVDGRDMIIIRMPKDFPPFPQKLKFREPQREERICLVTTNFQTKSMSSMVSDTSCTFPSGDGIFWKHWIQTKDGQCGSPLVSTRDGFIVGIHSASNFTNTNNYFTSVPKNFMELLTNQEAQQWVSGWKLNADSVLWGGHKVFMVKPEEPFQPVKEATQL [R204K] | 0.0521 | 0.0719 | 0.0917 | 0.0735 | 0.0732 | 0.0687 | 0.0692 |  |  | 0.0926 | 0.0709 | 0.0786 |  |  | 0.0674 | 0.0886 | 0.0669 |  | 
9 | MGESLFKGPRDYNPISSSICHLTNESDGHTTSLYGIGFGPFIITNKHLFRRNNGTLVVQSLHGVFKVKDTTTLQQHLVDGRDMIIIRMPKDFPPFPQKLKFREPQREERICLVTTNFQTKSMSSMVSDTSCTFPSGDGIFWKHWIQTKDGQCGSPLVSTRDGFIVGIHSASNFTNTNNYFTSVPKNFMELLTNQEAQQWVSGWRLNAESVLWGGHKVFMVKPEEPFQPVKEATQL [D208E] | 0.0578 |  | 0.0594 |  |  |  |  |  | 0.0876 |  |  | 0.0624 |  |  | 0.0589 | 0.0585 |  |  | 
